Source: the supplement of paper PMC8948288
The sequences are guide strands of siRNAs; only the seed at positions 2 to 7 varies.

Key:
GL261 = experiment: cell viability relative to siNT1 (ATP content); H4 human neuroglioma and GL261 mouse glioma; higher = less toxic; conditions: siRNA concentration 25 nM; 96 h; mouse
H4 = experiment: as above; conditions: siRNA concentration 10 nM; 96 h; human
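Note: cells reverse transfected with siRNA duplexes via lipid reagent, ATP read by luminescence, triplicate wells, values scaled to mean viability with non-targeting control siNT1.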

With UUAUAGAACAUGUAAACCA the cell viability (GL261) was 62.9% and the cell viability (H4) was 70.8%.

For UUAUAGCACAUGUAAACCA, the cell viability (GL261) was 26% and the cell viability (H4) was 26%.

In the case of UUAUAGGACAUGUAAACCA, the cell viability (GL261) is reported as 41.4% and the cell viability (H4) is reported as 65.6%.

Work on UUAUAGUACAUGUAAACCA yielded a cell viability (GL261) of 58.2% and a cell viability (H4) of 48.4%.

Work on UUAUAUAACAUGUAAACCA yielded a cell viability (GL261) of 68.8% and a cell viability (H4) of 88.5%.

Work on UUAUAUCACAUGUAAACCA yielded a cell viability (GL261) of 20.7% and a cell viability (H4) of 73.6%.

UUAUAUGACAUGUAAACCA gave a cell viability (GL261) of 56.8% and a cell viability (H4) of 87.1%.

Sequence UUAUAUUACAUGUAAACCA has a cell viability (GL261) of 34.2% and a cell viability (H4) of 79.9%.

In the case of UUAUCAAACAUGUAAACCA, the cell viability (GL261) is reported as 45.9% and the cell viability (H4) is reported as 76.8%.

UUAUCACACAUGUAAACCA was tested, and the cell viability (GL261) was 30.1% and the cell viability (H4) was 63.3%.

UUAUCAGACAUGUAAACCA was tested, and the cell viability (GL261) was 41.1% and the cell viability (H4) was 70.6%.

In the case of UUAUCAUACAUGUAAACCA, the cell viability (GL261) is reported as 50.1% and the cell viability (H4) is reported as 75.7%.

UUAUCCAACAUGUAAACCA gave a cell viability (GL261) of 41.7% and a cell viability (H4) of 74.7%.

For UUAUCCCACAUGUAAACCA, the cell viability (GL261) was 16.5% and the cell viability (H4) was 9.25%.

With UUAUCCGACAUGUAAACCA the cell viability (GL261) was 33.8% and the cell viability (H4) was 82%.

For UUAUCCUACAUGUAAACCA, the cell viability (GL261) was 35.9% and the cell viability (H4) was 51.9%.

UUAUCGAACAUGUAAACCA was tested, and the cell viability (GL261) was 49.7% and the cell viability (H4) was 93.6%.

UUAUCGCACAUGUAAACCA was tested, and the cell viability (GL261) was 38% and the cell viability (H4) was 51.8%.

UUAUCGGACAUGUAAACCA was tested, and the cell viability (GL261) was 61.7% and the cell viability (H4) was 74.1%.

Work on UUAUCGUACAUGUAAACCA yielded a cell viability (GL261) of 34.6% and a cell viability (H4) of 88.6%.

UUAUCUAACAUGUAAACCA was tested, and the cell viability (GL261) was 43.9% and the cell viability (H4) was 102%.

Work on UUAUCUCACAUGUAAACCA yielded a cell viability (GL261) of 15.7% and a cell viability (H4) of 74%.

With UUAUCUGACAUGUAAACCA the cell viability (GL261) was 59.3% and the cell viability (H4) was 87.2%.

Sequence UUAUCUUACAUGUAAACCA has a cell viability (GL261) of 29.9% and a cell viability (H4) of 78%.

In the case of UUAUGAAACAUGUAAACCA, the cell viability (GL261) is reported as 61.5% and the cell viability (H4) is reported as 82.4%.

With UUAUGACACAUGUAAACCA the cell viability (GL261) was 36.9% and the cell viability (H4) was 32.1%.

In the case of UUAUGAGACAUGUAAACCA, the cell viability (GL261) is reported as 50.7% and the cell viability (H4) is reported as 42.6%.

Sequence UUAUGAUACAUGUAAACCA has a cell viability (GL261) of 46.8% and a cell viability (H4) of 51.3%.

UUAUGCAACAUGUAAACCA showed a cell viability (GL261) of 53.8% and a cell viability (H4) of 41.2%.

In the case of UUAUGCCACAUGUAAACCA, the cell viability (GL261) is reported as 22.5% and the cell viability (H4) is reported as 11.2%.

Sequence UUAUGCGACAUGUAAACCA has a cell viability (GL261) of 39.8% and a cell viability (H4) of 68.2%.

UUAUGCUACAUGUAAACCA gave a cell viability (GL261) of 40.4% and a cell viability (H4) of 11.5%.

With UUAUGGAACAUGUAAACCA the cell viability (GL261) was 43.2% and the cell viability (H4) was 37.7%.

With UUAUGGCACAUGUAAACCA the cell viability (GL261) was 15.4% and the cell viability (H4) was 31.8%.

UUAUGGGACAUGUAAACCA showed a cell viability (GL261) of 22.1% and a cell viability (H4) of 11.2%.

Sequence UUAUGGUACAUGUAAACCA has a cell viability (GL261) of 35.7% and a cell viability (H4) of 17.6%.

Sequence UUAUGUAACAUGUAAACCA has a cell viability (GL261) of 44.1% and a cell viability (H4) of 90.2%.

In the case of UUAUGUCACAUGUAAACCA, the cell viability (GL261) is reported as 22.8% and the cell viability (H4) is reported as 30.8%.

UUAUGUGACAUGUAAACCA was tested, and the cell viability (GL261) was 47.8% and the cell viability (H4) was 60.2%.

Work on UUAUGUUACAUGUAAACCA yielded a cell viability (GL261) of 34.4% and a cell viability (H4) of 71.1%.

With UUAUUAAACAUGUAAACCA the cell viability (GL261) was 40.4% and the cell viability (H4) was 114%.

UUAUUACACAUGUAAACCA gave a cell viability (GL261) of 17.4% and a cell viability (H4) of 47.9%.

For UUAUUAGACAUGUAAACCA, the cell viability (GL261) was 27.1% and the cell viability (H4) was 94.7%.

Sequence UUAUUAUACAUGUAAACCA has a cell viability (GL261) of 33.6% and a cell viability (H4) of 103%.

For UUAUUCAACAUGUAAACCA, the cell viability (GL261) was 22.7% and the cell viability (H4) was 76.8%.

Work on UUAUUCCACAUGUAAACCA yielded a cell viability (GL261) of 11.4% and a cell viability (H4) of 47.4%.

Sequence UUAUUCGACAUGUAAACCA has a cell viability (GL261) of 31.2% and a cell viability (H4) of 77.4%.

Work on UUAUUCUACAUGUAAACCA yielded a cell viability (GL261) of 14.9% and a cell viability (H4) of 58.4%.

In the case of UUAUUGAACAUGUAAACCA, the cell viability (GL261) is reported as 60% and the cell viability (H4) is reported as 78.7%.

UUAUUGCACAUGUAAACCA showed a cell viability (GL261) of 39.3% and a cell viability (H4) of 34.5%.

In the case of UUAUUGGACAUGUAAACCA, the cell viability (GL261) is reported as 32.1% and the cell viability (H4) is reported as 83%.

With UUAUUGUACAUGUAAACCA the cell viability (GL261) was 43% and the cell viability (H4) was 77%.

UUAUUUAACAUGUAAACCA gave a cell viability (GL261) of 30.6% and a cell viability (H4) of 95%.

UUAUUUCACAUGUAAACCA was tested, and the cell viability (GL261) was 35% and the cell viability (H4) was 64.5%.

UUAUUUGACAUGUAAACCA gave a cell viability (GL261) of 44.8% and a cell viability (H4) of 93.4%.

UUAUUUUACAUGUAAACCA was tested, and the cell viability (GL261) was 19.6% and the cell viability (H4) was 72%.

UUCAAAAACAUGUAAACCA showed a cell viability (GL261) of 82.6% and a cell viability (H4) of 87.7%.

Work on UUCAAACACAUGUAAACCA yielded a cell viability (GL261) of 44% and a cell viability (H4) of 114%.

Work on UUCAAAGACAUGUAAACCA yielded a cell viability (GL261) of 61% and a cell viability (H4) of 102%.

With UUCAAAUACAUGUAAACCA the cell viability (GL261) was 58.4% and the cell viability (H4) was 69.7%.

Work on UUCAACAACAUGUAAACCA yielded a cell viability (GL261) of 46.5% and a cell viability (H4) of 109%.

UUCAACCACAUGUAAACCA gave a cell viability (GL261) of 10.2% and a cell viability (H4) of 28.3%.

Sequence UUCAACGACAUGUAAACCA has a cell viability (GL261) of 46.2% and a cell viability (H4) of 97.9%.

Work on UUCAACUACAUGUAAACCA yielded a cell viability (GL261) of 39.9% and a cell viability (H4) of 74%.

UUCAAGAACAUGUAAACCA gave a cell viability (GL261) of 41% and a cell viability (H4) of 111%.

UUCAAGCACAUGUAAACCA gave a cell viability (GL261) of 37.6% and a cell viability (H4) of 64%.

Work on UUCAAGGACAUGUAAACCA yielded a cell viability (GL261) of 29.8% and a cell viability (H4) of 93.6%.

UUCAAGUACAUGUAAACCA showed a cell viability (GL261) of 37.4% and a cell viability (H4) of 77.8%.

UUCAAUAACAUGUAAACCA gave a cell viability (GL261) of 66.5% and a cell viability (H4) of 84.8%.

With UUCAAUCACAUGUAAACCA the cell viability (GL261) was 45.4% and the cell viability (H4) was 81.2%.

Work on UUCAAUGACAUGUAAACCA yielded a cell viability (GL261) of 57.7% and a cell viability (H4) of 106%.

Work on UUCAAUUACAUGUAAACCA yielded a cell viability (GL261) of 60% and a cell viability (H4) of 92.1%.

UUCACAAACAUGUAAACCA gave a cell viability (GL261) of 31.4% and a cell viability (H4) of 99.3%.

With UUCACACACAUGUAAACCA the cell viability (GL261) was 21.4% and the cell viability (H4) was 46.5%.

UUCACAGACAUGUAAACCA was tested, and the cell viability (GL261) was 18% and the cell viability (H4) was 92.7%.

Sequence UUCACAUACAUGUAAACCA has a cell viability (GL261) of 38.2% and a cell viability (H4) of 62.1%.

Sequence UUCACCAACAUGUAAACCA has a cell viability (GL261) of 28.3% and a cell viability (H4) of 87.5%.

For UUCACCCACAUGUAAACCA, the cell viability (GL261) was 41.1% and the cell viability (H4) was 96.7%.

Work on UUCACCGACAUGUAAACCA yielded a cell viability (GL261) of 32.9% and a cell viability (H4) of 120%.

UUCACCUACAUGUAAACCA gave a cell viability (GL261) of 22.2% and a cell viability (H4) of 84.9%.

Sequence UUCACGAACAUGUAAACCA has a cell viability (GL261) of 50.5% and a cell viability (H4) of 92.5%.

UUCACGCACAUGUAAACCA was tested, and the cell viability (GL261) was 11.6% and the cell viability (H4) was 95.8%.

UUCACGGACAUGUAAACCA was tested, and the cell viability (GL261) was 43.9% and the cell viability (H4) was 120%.

For UUCACGUACAUGUAAACCA, the cell viability (GL261) was 49.2% and the cell viability (H4) was 109%.

UUCACUAACAUGUAAACCA showed a cell viability (GL261) of 53.4% and a cell viability (H4) of 116%.

In the case of UUCACUCACAUGUAAACCA, the cell viability (GL261) is reported as 37.8% and the cell viability (H4) is reported as 103%.

Sequence UUCACUGACAUGUAAACCA has a cell viability (GL261) of 44% and a cell viability (H4) of 99.7%.

Sequence UUCACUUACAUGUAAACCA has a cell viability (GL261) of 34.5% and a cell viability (H4) of 98.7%.

UUCAGAAACAUGUAAACCA gave a cell viability (GL261) of 59.2% and a cell viability (H4) of 115%.

UUCAGACACAUGUAAACCA was tested, and the cell viability (GL261) was 16.5% and the cell viability (H4) was 57.8%.
